Assay results from PubChem BioAssay AID1347417 (National Center for Advancing Translational Sciences (NCATS), 2020).
Screen size: about 120,000 compounds; about 5,300 (4.4%) were called active. The shares of active, inactive and inconclusive entries below differ from those in the screen. Calls come from the whole dose curve; as a rule, active = well fitted inhibition curve with a large enough effect; inconclusive = small, poorly fitted or top-dose-only effect; inactive = no such curve, though single readings can be large or run the other way. Where the call is inconclusive, the potency comes from a doubtful curve fit.

Experiment: qHTS Primary assay for Inhibitors of Plasmodium falciparum Dd2 growth in vitro; note: nearly all actives have a fitted effect of over 65% in size
Settings: P. falciparum Dd2 growth, SYBR Green, 72 h; series mostly up to 28.9 µM
How it was run: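 Infected erythrocytes (Dd2, 0.3% parasitemia, 2.5% hematocrit final) are added to compound in RPMI-1640/Albumax II medium, grown 72 h at 37C in low oxygen, then lysed with saponin/Triton-X containing SYBR Green and read by fluorescence.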
Potency is the fitted concentration of half-maximal effect; tags give direction and shape of the fitted curve.

Row | SMILES | Potency
1 | COc1ccc(CN[C@H]2[C@H](O)[C@H](O)C[C@@H]2c2ccccc2)cc1 | inconclusive: 3.55 µM [inhibitor, single point]
2 | O=C(NC1CCCC1)c1ccc2c(c1)N(Cc1c(F)cccc1Cl)C(=O)c1ccccc1S2 | inactive
3 | c1cn(-c2ccc(-c3cscn3)cc2)c(-c2cc3n(n2)CCCNC3)n1 | inconclusive: 14.1 µM [inhibitor, partial curve, poor fit]
4 | CCOc1ccc(N(CC)S(=O)(=O)N2CCCC(C(=O)NCc3ccccc3OCC)C2)cc1 (centres undefined) | inconclusive: 12.6 µM [inhibitor, partial curve]
5 | CCOC(=O)C1CCN(C(=O)c2cn3ccnc(-c4ccc(OC)cc4)c3n2)CC1 | inactive
6 | COc1cc(-c2cc3n(C)c(C)c(CCC(=O)NC4CCC(C)CC4)c(=O)n3n2)cc(OC)c1OC (centres undefined) | inconclusive: 10 µM [inhibitor, partial curve]
7 | O=C(Nc1cccc(Cl)c1)[C@@H]1C[C@H](c2ccc(F)cc2)N([S+](=O)([O-])C2CC2)C1 | inconclusive: 5.62 µM [inhibitor, single point]
8 | CC(C)c1ccc(NC(=O)CCC2CCN(C(=O)c3ccccc3)CC2)cc1 | inactive
9 | CCc1ccc(-c2nc(CN3CCCC(C(=O)NCc4ccccc4Cl)C3)c(C)o2)cc1 (centres undefined) | inconclusive: 10 µM [inhibitor, single point]
10 | COc1cccc(NC(=O)CSC2=Nc3ccccc3C3=NC(CCC(=O)NC4CCCCC4)C(=O)N23)c1 (centres undefined) | inconclusive: 11.2 µM [inhibitor, single point]
11 | COc1cccc(-c2nc(-c3c(C)noc3C)cc3cc(C)oc23)c1 | inconclusive: 31.6 µM [inhibitor, single point]
12 | COc1cccc(C(=O)NCC(c2ccc3c(c2)OCO3)N2CCN(C)CC2)c1 (centres undefined) | inconclusive: 15.8 µM [inhibitor, single point]
13 | COc1cc(CNCCCSc2nnnn2C)cc(Br)c1OC | inconclusive: 10 µM [inhibitor, partial curve]
14 | Cc1ncsc1CN1CC(Oc2cccc(C(=O)N3CCOCC3)c2)C1 | inconclusive: 1.78 µM [inhibitor, full curve, poor fit]
15 | O=C(Nc1ccccc1F)N1CC2CCC(C1)N2Cc1ccc(-c2cccnc2)cc1 | inconclusive: 7.94 µM [inhibitor, partial curve, poor fit]
16 | COc1ccc(N2CC(c3noc(-c4cccc(C)c4)n3)CC2=O)cc1 (centres undefined) | inactive
17 | CCc1ccccc1-n1nnc(-c2nc(-c3ccccc3F)no2)c1C | inconclusive: 4.47 µM [inhibitor, partial curve]
18 | Cc1cc2nc3n(c(=O)c2n1CC(=O)Nc1ccccc1Cl)CCCCC3 | inactive
19 | O=C(c1ccco1)N1CCN(CC2(O)CCNC2)CC1 (centres undefined) | inactive
20 | CCOC(=O)C1=C(CN2CCN(c3ccc(Cl)cc3)CC2)NC(=O)NC1c1ccc(F)cc1 (centres undefined) | inconclusive: 11.2 µM [inhibitor, single point]
21 | CCOc1cccc2sc(=NC(=O)c3ccc(S(=O)(=O)N4CCOCC4)cc3)n(C)c12 | inconclusive: 1.26 µM [inhibitor, single point]
22 | Cc1cc(=O)n(CC(=O)Nc2ccc(Br)cc2)c(N2CCC(C)CC2)n1 | inactive

Row | SMILES | Potency
23 | COc1ccc(CN2CCNc3cc(Nc4ccccc4)ncc3C2)cc1 | inconclusive: 2.82 µM [inhibitor, single point]
24 | CCCCc1ncc(CN2CCC(Oc3ccc(C(=O)NCCOC)cc3Cl)CC2)[nH]1 | inconclusive: 3.98 µM [inhibitor, single point]
25 | CCOc1cc(=O)n2c(c1C(=O)Nc1cc(F)ccc1Cl)CCCC2 | inactive
26 | CCCCN(CCCC)CCn1cnc2c([nH]c3ccc(OC)cc32)c1=O | inconclusive: 17.8 µM [inhibitor, single point]
27 | Cc1cc(=O)n(CC(=O)Nc2ccccc2F)c(-c2ccc(F)cc2)n1 | inconclusive: 20 µM [inhibitor, single point]
28 | COc1cccc(CC(=O)N2CCC3(CC2)CC(Cc2nc(-c4cccnc4)no2)CCO3)c1 (centres undefined) | active: 8.91 µM
29 | CCOC(=O)C1CCCN(C(=O)C2CC(c3ccc(CC)cc3)CN(C(C)=O)C2)C1 (centres undefined) | inactive
30 | c1ccc(Oc2cc3c(cn2)NCCN(CC2CCOCC2)C3)cc1 | inactive
31 | O=C(Nc1cccc(-c2nnc3n2CCCC3)c1)c1ccc(Cl)cc1 | inconclusive: 1.58 µM [inhibitor, single point]
32 | CCOC(=O)c1cnc2c(OC)cccc2c1N1CCN(c2ccccc2F)CC1 | inconclusive: 17.8 µM [inhibitor, single point]
33 | COc1ccc(CC(=O)N2Cc3ccccc3CC3(CCN(C)C3)C2)cc1 (centres undefined) | inconclusive: 7.08 µM [inhibitor, partial curve, poor fit]
34 | CCCCCC(=O)N[C@@H](Cn1cc(F)c(=O)[nH]c1=O)C(=O)O | inconclusive: 2.82 µM [inhibitor, single point]
35 | CN(C(=O)CSc1nc2ccc(NC(=O)c3ccco3)cc2s1)c1ccccc1 | inconclusive: 8.91 µM [inhibitor, partial curve, poor fit]
36 | Cc1cc(C)c2c(NC(=O)c3ccccc3Cl)c(C(=O)Nc3ccc(C)c(C)c3)sc2n1 | inactive
37 | CC(C)N1CCCC2(CCN(C(=O)C3(Cn4ccnc4)CC3)C2)C1=O (centres undefined) | inactive
38 | COc1cccc(CN(C)Cc2ccc(-c3ccccc3)cc2)c1 | inconclusive: 12.6 µM [inhibitor, partial curve, poor fit]
39 | O=C(c1ccc2c(c1)OCO2)N1CCC(c2nnc3n2CCNC3)CC1 | inactive
40 | COc1cc(NC(=O)Cn2c(-c3ccccc3)nc(C)c(CCO)c2=O)cc(OC)c1OC | inactive
41 | Cc1cc(F)ccc1OCC(=O)c1ccc2c(c1)N(C(C)C(=O)NCc1ccc(F)cc1)C(=O)CO2 (centres undefined) | inactive
42 | O=C1Nc2ccccc2CNC12CCN(Cc1ccc(Cl)cc1)CC2 | inconclusive: 3.55 µM [inhibitor, partial curve]
43 | C1CC(C2CCN(C3CNC3)CC2)CN1 (centres undefined) | inactive
44 | Cc1ccc2nc3sc(C(=O)Nc4ccc(F)cc4)cc3cc2c1 | inconclusive: 5.01 µM [inhibitor, partial curve, poor fit]
